Source: the BET-seq Pho4 binding data (Le et al. 2018)
The list shows a part of the results. These are noisy estimates, calculated here from bound and input reads.

target: T1, Pho4 (S. cerevisiae) (UniProt P07270); assay: relative binding free energy (BET-seq); higher = weaker binding; details: reference: library average
T1 sequence: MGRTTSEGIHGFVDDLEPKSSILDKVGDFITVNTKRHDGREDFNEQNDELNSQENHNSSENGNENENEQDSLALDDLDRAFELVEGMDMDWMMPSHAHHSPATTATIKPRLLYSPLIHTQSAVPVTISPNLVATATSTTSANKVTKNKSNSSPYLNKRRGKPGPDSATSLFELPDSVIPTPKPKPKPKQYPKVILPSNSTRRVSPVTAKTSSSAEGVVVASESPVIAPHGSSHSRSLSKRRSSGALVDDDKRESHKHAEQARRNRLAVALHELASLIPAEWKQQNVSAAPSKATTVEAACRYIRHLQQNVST

Sequence | relative binding free energy
GAACACACGTGGGTGT | -0.06 kcal/mol
TTTGTCACGTGCAGAA | 0.19 kcal/mol
TTAGGCACGTGTAGGA | -0.04 kcal/mol
AGTCACACGTGTGAGT | 0.07 kcal/mol
GTGGACACGTGGCTTG | -0.07 kcal/mol
ATTGGCACGTGATGAA | -0.05 kcal/mol
CTGGTCACGTGTGTGG | 0.18 kcal/mol
TTTGACACGTGTCTGG | 0.16 kcal/mol
CGTTTCACGTGGATGC | 0.27 kcal/mol
AGAGTCACGTGTTGCA | 0.06 kcal/mol
TATCACACGTGAGGGG | 0.32 kcal/mol
TTAGTCACGTGTAGTG | 0.11 kcal/mol
CTGGGCACGTGCTGGT | -0.15 kcal/mol
TAGTACACGTGATAGT | 0.16 kcal/mol
TTAGTCACGTGGTGTG | 0.09 kcal/mol
TATCACACGTGGAGGG | 0.1 kcal/mol
TGAAACACGTGGATTT | 0.12 kcal/mol
CTGTGCACGTGTGTTG | -0.02 kcal/mol
TTTGTCACGTGTAACA | 0.31 kcal/mol
TGTTGCACGTGATGGT | 0.13 kcal/mol
GGTTCCACGTGGAGGC | 0.19 kcal/mol
CGAATCACGTGTTGTT | 0.24 kcal/mol
TTTTTCACGTGGGACT | 0.15 kcal/mol

Sequence | relative binding free energy
TCGGGCACGTGAAGAG | 0.05 kcal/mol
AAGTGCACGTGGCTTT | -0.15 kcal/mol
TTATACACGTGTGGAT | 0.02 kcal/mol
TTGTGCACGTGTTTTG | 0.05 kcal/mol
GCGGGCACGTGATAGG | -0.04 kcal/mol
TATGTCACGTGGGTAG | -0.03 kcal/mol
TCAGACACGTGGTTTG | -0.05 kcal/mol
TAGATCACGTGTTGAT | 0.09 kcal/mol
ACATACACGTGGGGGG | -0.07 kcal/mol
TCTTTCACGTGGGGGT | 0.12 kcal/mol
TGATTCACGTGTGTGG | 0.29 kcal/mol
ATTTGCACGTGCTGAT | 0.03 kcal/mol
GCGATCACGTGGAGGG | 0.14 kcal/mol
TTGAACACGTGATTGA | 0.11 kcal/mol
TTGGACACGTGGATAA | -0.01 kcal/mol
GCGGGCACGTGTTCGT | 0.04 kcal/mol
ACAGTCACGTGAGTGT | 0.26 kcal/mol
TTATGCACGTGCTAGG | -0.13 kcal/mol
TGTCTCACGTGGCGTT | 0.21 kcal/mol
GCTGGCACGTGAGGGC | 0.16 kcal/mol
TTACACACGTGAGGTG | 0.09 kcal/mol
GGTTTCACGTGTACAA | 0.44 kcal/mol
AGGGACACGTGTCATA | 0.1 kcal/mol

Sequence | relative binding free energy
TCGGTCACGTGATATT | 0.27 kcal/mol
ATAAACACGTGTGAGT | -0.02 kcal/mol
TAAGGCACGTGATATA | 0.01 kcal/mol
TGTAGCACGTGTGACT | -0.13 kcal/mol
CGTCGCACGTGTGAGG | 0.12 kcal/mol
GTTTACACGTGCATTT | 0.19 kcal/mol
CAAGGCACGTGTGTGA | -0.17 kcal/mol
GAATTCACGTGAGTTA | 0.39 kcal/mol
TCGTACACGTGGATTG | 0.01 kcal/mol
ATATTCACGTGGTTCG | 0.08 kcal/mol
AAGTTCACGTGGATTT | 0.31 kcal/mol
TGATTCACGTGTCTGG | 0.2 kcal/mol
GTTAGCACGTGGATAA | -0.08 kcal/mol
TACTACACGTGTGGGT | 0.01 kcal/mol
GGTGTCACGTGGTAGA | 0.08 kcal/mol
TATATCACGTGATGGC | 0.33 kcal/mol
CGTAACACGTGATGAT | 0.34 kcal/mol
GTAAGCACGTGTGTAG | -0.07 kcal/mol
TTTTGCACGTGCGGGC | 0.02 kcal/mol
TGCTTCACGTGGATTG | 0.22 kcal/mol
GCTGGCACGTGTTTGG | -0.08 kcal/mol
GTAAACACGTGAAGGT | 0.36 kcal/mol
GAAATCACGTGGTGTT | 0.2 kcal/mol

Sequence | relative binding free energy
ATTGGCACGTGATTTA | 0 kcal/mol
CATAGCACGTGGATGG | -0.02 kcal/mol
AGGTGCACGTGGGGGA | -0.2 kcal/mol
AGTGGCACGTGTTGCG | -0.11 kcal/mol
GGTTACACGTGGATGA | 0.1 kcal/mol
TAGGTCACGTGTTTAC | 0.07 kcal/mol
TTGGTCACGTGCGATA | 0.2 kcal/mol
GGGGTCACGTGTCTAG | -0.01 kcal/mol
AGAATCACGTGTTGGG | 0.16 kcal/mol
GGAGGCACGTGGTGGT | -0.05 kcal/mol
ATGTTCACGTGGTAGG | 0.11 kcal/mol
CGGTTCACGTGGGGCG | 0.23 kcal/mol
AGTATCACGTGAGATT | 0.25 kcal/mol
GGTACCACGTGGGGCG | -0.18 kcal/mol
TCCGTCACGTGAGTGT | 0.31 kcal/mol
TTGGACACGTGTGGGA | 0.19 kcal/mol
ATTATCACGTGAGTTA | 0.37 kcal/mol
TTCTTCACGTGTCTTG | 0.43 kcal/mol
TGAGCCACGTGGGTAG | -0.18 kcal/mol
CGTGCCACGTGTGTAT | -0.01 kcal/mol
TTGTACACGTGTGAGT | 0.09 kcal/mol
TTGGACACGTGGGACA | -0.06 kcal/mol
TTATGCACGTGTACTG | -0.14 kcal/mol

Sequence | relative binding free energy
TGGCTCACGTGTCAGG | 0.34 kcal/mol
GTTATCACGTGCGGTG | 0.09 kcal/mol
GCAAGCACGTGGGTAG | -0.16 kcal/mol
CTTTGCACGTGTGAAG | 0.1 kcal/mol
GTGATCACGTGGCTTG | -0.01 kcal/mol
GCCGTCACGTGTGGTA | 0.21 kcal/mol
CTGTTCACGTGGGTGG | 0.07 kcal/mol
TAGGGCACGTGTTATG | -0.16 kcal/mol
TTAGGCACGTGTTCGT | -0.09 kcal/mol
AGGTTCACGTGCGCGG | 0.15 kcal/mol
TGATTCACGTGGAGGA | 0.33 kcal/mol
GTATTCACGTGGGATA | 0.21 kcal/mol
AAGGGCACGTGAGTGC | 0.14 kcal/mol
TGGTCCACGTGTTAGT | 0.06 kcal/mol
TGCCGCACGTGATATG | 0.22 kcal/mol
TTTTGCACGTGGCTGA | -0.08 kcal/mol
TGCATCACGTGTAGTT | 0.14 kcal/mol
GTTACCACGTGTGTGG | -0.02 kcal/mol
TGCGGCACGTGAGTCA | 0.18 kcal/mol
TGGATCACGTGGCATT | 0.28 kcal/mol
AGGTCCACGTGTTTTT | 0.11 kcal/mol
ATGATCACGTGATAGT | 0.25 kcal/mol
CTGTCCACGTGGGTGG | -0.27 kcal/mol
